According to PubChem BioAssay AID686979 (National Center for Advancing Translational Sciences (NCATS), 2013):
Screen size: about 420,000 compounds; about 50,000 (12%) were called active. Inconclusive results, whose numbers are uncertain, are shown with a selection of clear calls. Calls follow the shape of the dose curve; as a rule, active = well fitted inhibition curve with a large enough effect; inconclusive = small, poorly fitted or top-dose-only effect; inactive = flat fitted curve, though single readings scatter. Potencies of inconclusive entries are left out as doubtful fits.

Assay: qHTS for Inhibitors of human tyrosyl-DNA phosphodiesterase 1 (TDP1): qHTS in cells in presence of CPT; also: nearly all actives have a fitted effect of over 55% in size
Conditions: chicken DT40 Tdp1-/-;hTDP1 cells + 20 nM CPT, ATP luminescence, 48 h; activity change, negative = growth inhibition: at 46.2 µM (top of the series)
Method in brief: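 Cell growth measured by CellTiter-Glo luminescence after a minimum 48 h, 37 C compound exposure with 20 nM CPT in Tdp1-knockout DT40 cells stably expressing hTDP1, seeded 400/well; qHTS titration format.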
% is scaled to controls: 0 for no effect and ±100 for the full control effect; potency is read from the fitted curve at half-maximal effect; tags tell the direction and shape of the fitted curve.

Row | Compound | activity change, negative = growth inhibition | Potency
1 | CC1=Nc2cc(C(=O)O)ccc2Sc2ccc(Br)cc21 | inactive: -2.95% | 
2 | C[C@H](CO)N1C[C@H](C)[C@@H](CN(C)Cc2cccnc2)Oc2ncc(-c3cccc(C#N)c3)cc2C1=O |  | inconclusive [inhibitor, single point]
3 | CCN1C(=O)CC(N2CCC(Nc3ccc(OC)cc3)CC2)C1=O (stereo unspecified) |  | inconclusive [inhibitor, single point]
4 | COc1cc2ncnc(NCc3ccc4c(c3)OCO4)c2cc1OC |  | inconclusive [inhibitor, single point]
5 | COc1cc2c(-c3ccccc3)c(C)oc2cc1/C=N/NC(N)=S |  | inconclusive [inhibitor, partial curve]
6 | COc1ccc(CCN2C(=O)CSC2=Nc2ccc(C)cc2C)cc1OC |  | active: 23.1 µM
7 | C=CCN(CC=C)CCOc1cccc(Oc2ccccc2)c1 |  | inconclusive [inhibitor, single point]
8 | Clc1ccccc1-c1cc(NCCN2CCOCC2)ncn1 |  | inconclusive [inhibitor, full curve, poor fit]
9 | CCN(CC)S(=O)(=O)c1cc(-c2onc(C)c2C)ccc1OC |  | inconclusive [inhibitor, single point]
10 | Cc1cc(N2CCN(C(c3ccnc4ccccc34)c3nnnn3-c3c(C)cccc3C)CC2)c2ccccc2n1 (stereo unspecified) |  | active: 6.51 µM
11 | COc1ccc(C(=O)NCC(=O)OCC(=O)Nc2sccc2C#N)cc1OC | inactive: -13.4% | 
12 | CCCCCn1nnnc1C1(C)CCC(=O)N1Cc1ccco1 (stereo unspecified) |  | inconclusive [inhibitor, single point]
13 | O=C(NCc1ccco1)c1cnn2c(C(F)(F)F)cc(-c3ccccc3)nc12 |  | inconclusive [inhibitor, partial curve]
14 | Brc1ccc(CSc2nnc(Cc3c[nH]c4ccccc34)o2)cc1 |  | inconclusive [inhibitor, partial curve]
15 | CC1(C(=O)Nc2ccc(Cl)cc2)Cc2c(-c3cccc(C(F)(F)F)c3)ccnc2O1 (stereo unspecified) |  | inconclusive [inhibitor, single point]
16 | CC(=O)NC12CC3CC(C1)CC(C(=O)Nc1nc4ccc(F)cc4s1)(C3)C2 |  | inconclusive [inhibitor, single point]
17 | Cc1nnc(NC(=O)c2oc3c(ccc4ccccc43)c2C)s1 |  | inconclusive [inhibitor, single point]
18 | CCN(CC)c1ccc(/C=N\N2CCN(Cc3ccc(C)cc3)CC2)cc1 | inactive: -0.224% | 
19 | CCCNC(=O)CSc1nc2nc(C)c(Cc3ccccc3Cl)c(C)n2n1 |  | inconclusive [inhibitor, single point]
20 | COC(=O)c1ccc(CSc2nnc(Nc3cccc(OC)c3)s2)o1 | inconclusive: -34% [inhibitor] | 
21 | Cc1ccc(-c2noc(-c3nnn(CC(=O)Nc4cc(C)cc(C)c4)c3N)n2)cc1 |  | active: 1.3 µM
22 | Cc1cc(Br)ccc1NC(=O)c1cnc(N2CCN(c3ccccn3)CC2)c2ccccc12 |  | active: 14.6 µM
23 | Cc1ccc(-n2nnnc2-c2cnc(-c3cccnc3)nc2C(F)(F)F)cc1 |  | active: 18.4 µM

Row | Compound | activity change, negative = growth inhibition | Potency
24 | CC(=O)c1ccc(NC(=O)C(C)OC(=O)COc2ccc(C#N)cc2)cc1 (stereo unspecified) | inactive: 10.7% | 
25 | O=C(Nc1ccccc1)N1CCCC2(CCN(C(=O)c3cc(C(F)(F)F)cc(C(F)(F)F)c3)CC2)C1 |  | inconclusive [inhibitor, single point]
26 | Cc1ccc(-c2csc(-c3ccncc3)n2)cc1 | inactive: 2.8% | 
27 | CCn1c(CNc2ccc(Cl)cc2)nnc1SCc1ccc(Cl)cc1 |  | inconclusive [inhibitor, single point]
28 | COc1ccc(CCN(C)CC(O)c2ccccc2)cc1OC (stereo unspecified) | inactive: -0.868% | 
29 | O/N=C/c1ccccc1OCc1ccccc1Cl | inactive: 1.01% | 
30 | CCCCOc1ccc(CSc2nnc(C)n2N)cc1[N+](=O)[O-] | inactive: -7.98% | 
31 | Cc1ccc(F)cc1NC(=O)c1c(-c2ccccc2)noc1C |  | inconclusive [inhibitor, single point]
32 | Cc1ccc(O)c(-c2cc(-c3cccc(F)c3)n[nH]2)c1 |  | inconclusive [inhibitor, single point]
33 | Cc1c(C(=O)N2CCC[C@H]2CO)oc2c(F)cccc12 | inactive: -25.1% | 
34 | CCc1ccc(C(=O)c2cn(CC(=O)Nc3ccc(OC)cc3OC)c3ccc(CC)cc3c2=O)cc1 | inactive: 7.66% | 
35 | Cc1ccccc1Nc1nc(=O)c2cc([N+](=O)[O-])ccc2s1 |  | inconclusive [inhibitor, single point]
36 | CCC(C)(C)c1ccc(Oc2ccc(N)cc2)cc1 | inactive: -10.7% | 
37 | O=C(NCCc1cccc(Cl)c1)c1ccc(OC2CCN(Cc3ccccn3)CC2)cc1 |  | active: 29.1 µM
38 | O=C(NCc1cccc(Cl)c1)C1CCN(C(=O)c2sccc2-n2cccc2)CC1 |  | inconclusive [inhibitor, single point]
39 | CN(C)Cc1c(OC(=O)c2ccc(N)cc2)ccc2ccccc12 | inactive: -7.84% | 
40 | Cc1ccc2cc(CN(CCCO)S(=O)(=O)c3cccc4nsnc34)c(=O)[nH]c2c1 |  | inconclusive [inhibitor, partial curve]
41 | O=C(C[C@H]1C[C@H](C(=O)N2CCOCC2)[C@@]2(CCC3CCCC3)c3[nH]c4ccc(Cl)cc4c3CCN2C1=O)NCc1ccco1 |  | active: 20.6 µM
42 | CCN(CCNC(=O)C1CCN(S(=O)(=O)c2cccc3nsnc23)CC1)c1ccccc1 |  | inconclusive [inhibitor, partial curve]
43 | CN(C)S(=O)(=O)c1cccc(-c2csc(N/N=C/c3ccco3)n2)c1 |  | inconclusive [inhibitor, single point]
44 | O=C(C1CC(=O)N(c2ccc(Cl)cc2)C1)N1CCN(Cc2ccc3c(c2)OCO3)CC1 (stereo unspecified) |  | inconclusive [inhibitor, single point]
45 | O=S(=O)(NCCc1nc2ccccc2[nH]1)c1ccccc1 | inactive: 6.3% | 
46 | CC(C)C(C(=O)Nc1nccs1)c1ccc(Cl)cc1 (stereo unspecified) |  | inconclusive [inhibitor, partial curve]
